# Results reported in PubChem BioAssay (NCATS).
# Several values for one entry are separate records, joined by “and”; a condition that tells them apart may be missing. Identical values can stand only once. The list shows a part of the results. Shown are side measurements of this screen, not its main read-out; they come without a call. For part of these data: Most of these compounds were active or inconclusive in the main read-out, so they are no random draw. For part of these data: The note in brackets gives the kind of curve behind each potency; many fits are weak.
# Columns and labels:
# [1] = qHTS Assay for Lipid Storage Modulators (AID 1519); details: Drosophila S3 cells, BODIPY lipid droplet/cell ratio, laser cytometry, cells loaded with oleic acid
# Method in brief: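 Cells seeded at 5,000 per well were treated with compounds over a concentration series and loaded with oleic acid (400 uM, as added). Lipid droplet fluorescence (488 nm excitation, 500-530 nm channel) was read by laser-scanning cytometry and normalized to 20 uM Triacsin C.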
# [2] = qHTS Assay for Modulators of Human Peripheral Myelin Protein 22 (PMP22) Expression/Activity (AID 1967); details: Cell-based PMP22 reporter, dual-color luciferase ratio
# Method in brief: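 Mouse MSC80 Schwann line, Pmp22 promoter–CBG68 reporter, EF-alpha–CBR internal control. 24h compound exposure, 37 °C/5% CO2, DMEM + 10% FBS. Readout: corrected green/red luminescence ratio, normalized to untreated cells; concentration-response curves fitted and classified.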
# [3] = S16 Schwann cell PMP22 intronic element beta-lactamase assay (AID 624044); details: S16 rat Schwann cells, PMP22 element beta-lactamase FRET, 24 h; measured here: 460 nm blue channel; also: nearly all actives have a fitted effect of over 15% in size
# Method in brief: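 Beta-lactamase reporter under a PMP22 intronic regulatory element in stable S16 rat Schwann cells; 24 h compound exposure. 460 nm blue signal normalized between DMSO (0%) and potassium clavulanate, with 535 nm FRET tracking viability; curves classed by r2 and response.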
# [4] = qHTS Validation Assay to Find Inhibitors of Chronic Active B-Cell Receptor Signaling (AID 485345); details: ABC-DLBCL cells, chronic BCR signaling reporter
# Method in brief: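 TMD8 ABC-DLBCL cells stably carrying doxycycline-inducible IkappaBalpha–green luciferase fusion plus unfused red luciferase; compounds 46 uM to 3 nM, 4 h at 37C with doxycycline. Corrected green/red luminescence ratio normalized to 10 uM MG-132 and basal cell wells; curves fitted.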
# [5] = Nrf2 qHTS screen for inhibitors: Validation (AID 493153); details: A549 ARE-Fluc reporter, 18-24 h; AC50: CellTiter-Fluor fluorescence read, measured here: cytotoxicity CellTiter-Fluor AC50; viability change: measured here: cytotoxicity max response
# Method in brief: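 Concentration-response on A549 ARE_Fluc reporter cells exposed 18-24 h at 37 C, 5% CO2. Cytotoxicity read first by CellTiter-Fluor fluorescence (Ex 405/Em 525), then Nrf2 inhibition by BugLite luminescence after 15 min.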
# [6] = qHTS Validation Assay for Iinhibitors of HIV-1 Budding by Blocking the Interaction of PTAP/TSG101 (AID 485342); details: TSG101-PTAP binding, fluorescence polarization, 4-point titration; measured here: FITC channel readout
# Method in brief: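 FP read-out: FITC-PTAP peptide, 50 nM final, binding Tsg101 binding domain, 10 uM final; 20 min r.t.; 10 mM HEPES pH 7.5, 0.15 M NaCl, 0.01% Tween 20, 3 mM EDTA, 0.1 mM TCEP.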
# [7] = qHTS assay for small molecule antagonists of peroxisome proliferator-activated receptor delta signaling (AID 588535); details: HEK293T PPARd-UAS-bla, beta-lactamase FRET ratio, 18 h; 460 nm channel;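 also: cells co-treated with a PPAR-delta agonist as stimulator during compound exposure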
# Method in brief: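 Fluorescence from CCF4-loaded GeneBLAzer PPAR-delta-UAS-bla HEK293T cells (2 hrs RT loading) quantified reporter inhibition after an 18 hr, 37 C compound exposure across a titration.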
# [8] = qHTS assay for small molecule agonists of retinoid X receptor alpha signaling (AID 588544); details: HEK293T RXRa-UAS-bla, beta-lactamase reporter, 18 h; 530 nm emission
# [9] = qHTS assay for small molecule antagonists of retinoid X receptor alpha signaling (AID 588546); details: HEK293T RXRa-UAS-bla, beta-lactamase ratio, antagonist mode; measured here: W530 green channel, cytotoxicity proxy;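 also: cells stimulated with 9-cis-retinoic acid as agonist; % is scaled to controls: 0 for no effect and ±100 for the full control effect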
# Method in brief: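 Beta-lactamase reporter inhibition, read as CCF4 fluorescence ratio (ex 405, em 460/530 nm) after 2 h at RT. HEK293T UAS-bla cells, 2500/well, were stimulated with 9-cis-RA at 500 or 100 nM final alongside test compound for 18 h at 37 C.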
# [10] = measured here: cell count channel max response
# [11] = measured here: lipid channel max response
# [12] = measured here: green reporter channel AC50, mouse Pmp22 promoter in mouse Schwann cells
# [13] = measured here: red reporter channel AC50, EF-alpha promoter control reporter in MSC80 mouse Schwann cells
# [14] = measured here: CBG/CBR ratio read-out
# [15] = measured here: CBR control luciferase (viability counter)
# Tags tell the direction and shape of the fitted curve.
smiles,measurement,setting,value
CC1=C(CC(=O)O)c2cc(F)ccc2/C1=C\c1ccc(S(C)(=O)=O)cc1,max response,[1]; [10],62.3%
same,max response,[1]; [11],53.2%
same,AC50,[2]; [12],"75.7 µM [falling, single point]"
same,AC50,[2]; [13],"95.3 µM [falling, single point]"
CC(C)(C)[C@]1(O)CCN2CC3c4ccccc4CCc4cccc(c43)[C@@H]2C1 (some centres not stated),max response,[1]; [10],60.2% and 61.8%
same,max response,[1]; [11],61.9% and 60.3%
same,AC50,[2]; [12],"42.6 µM [falling, partial curve] and 53.6 µM [falling, partial curve]"
same,AC50,[2]; [13],"42.6 µM [falling, full curve] and 47.8 µM [falling, partial curve]"
same,AC50,[3],"14.1 µM [falling, single point]"
O=c1oc(Cl)c(Cl)c2ccccc12,max response,[1]; [10],38.5%
same,max response,[1]; [11],39.2%
same,AC50,[4]; [14],"3.66 µM [falling, full curve]"
CNCCC=C1c2ccccc2CCc2ccccc21,max response,[1]; [10],43%
same,max response,[1]; [11],44.7%
same,AC50,[2]; [12],"23.9 µM [falling, partial curve]"
same,AC50,[2]; [13],"26.9 µM [falling, full curve]"
same,AC50,[5],"29.1 µM [falling, partial curve, poor fit]"
same,viability change,[5],-21%
CCCCCCCCCC(=O)NC(CN1CCOCC1)[C@H](O)c1ccccc1 (some centres not stated),max response,[1]; [10],55.7%
same,max response,[1]; [11],55.2%
same,AC50,[2]; [12],"47.8 µM [falling, partial curve]"
same,AC50,[2]; [13],"60.1 µM [falling, partial curve]"
CCN(CC)CC#CCOC(=O)C(O)(c1ccccc1)C1CCCCC1 (configuration not stated),max response,[1]; [10],41.2%
same,max response,[1]; [11],42.2%
same,AC50,[2]; [12],"60.1 µM [falling, partial curve]"
same,AC50,[2]; [13],"84.9 µM [falling, single point]"
O[Si](CCCN1CCCCC1)(c1ccc(F)cc1)C1CCCCC1 (configuration not stated),max response,[1]; [10],51.7%
same,max response,[1]; [11],51.7%
same,AC50,[2]; [12],"42.6 µM [falling, full curve]"
same,AC50,[2]; [13],"37.9 µM [falling, full curve]"
CCn1cc(C(=O)O)c(=O)c2cc(F)c(N3CCNC(C)C3)c(F)c21 (configuration not stated),max response,[1]; [10],37%
same,max response,[1]; [11],38.1%
same,AC50,[2]; [12],"84.9 µM [falling, single point]"
same,AC50,[2]; [13],"75.7 µM [falling, single point]"
NCCCCNS(=O)(=O)c1cccc2c(Cl)cccc12,max response,[1]; [10],51.1%
same,max response,[1]; [11],49.9%
same,AC50,[2]; [12],"21.3 µM [falling, full curve]"
same,AC50,[2]; [13],"23.9 µM [falling, full curve]"
O=c1cc(O)cc(/C=C/c2ccc(O)c(O)c2)o1,max response,[1]; [10],81.9%
same,max response,[1]; [11],82.8%
same,AC50,[2]; [12],"2.69 µM [falling, full curve]"
same,AC50,[2]; [13],"84.9 µM [falling, single point]"
same,AC50,[6],"50.1 µM [rising, partial curve]"
same,AC50,[4]; [14],"18.4 µM [falling, single point]"
same,AC50,[4]; [15],"29.1 µM [falling, single point]"
N[C@@H](Cc1ccc(F)cc1)C(=O)O,max response,[1]; [10],5.8%
same,max response,[1]; [11],5.59%
same,AC50,[2]; [13],"26.9 µM [falling, full curve]"
same,AC50,[4]; [14],"20.6 µM [falling, single point]"
same,AC50,[4]; [15],"20.6 µM [falling, single point]"
C=Cc1c(C)c2cc3[nH]c(cc4nc(cc5nc(cc1[nH]2)C(C)=C5CCC(=O)O)C(CCC(=O)O)=C4C)c(C)c3C=C,max response,[1]; [10],56.5%
same,max response,[1]; [11],60%
same,AC50,[6],"79.4 µM [falling, partial curve]"
same,AC50,[5],"13 µM [falling, single point]"
same,viability change,[5],-37.2%
Cn1cc(C(F)(F)F)nc1-c1ccc(OCC(O)CNCCOc2ccc(O)c(C(N)=O)c2)cc1 (configuration not stated),max response,[1]; [10],48.8%
same,max response,[1]; [11],54%
same,AC50,[2]; [12],"60.1 µM [falling, partial curve]"
same,AC50,[2]; [13],"75.7 µM [falling, partial curve, poor fit]"
Cc1nc2c([nH]1)c(=O)n(C)c(=O)n2Cc1ccco1,max response,[1]; [10],44.1%
same,max response,[1]; [11],44.8%
same,AC50,[2]; [13],"84.9 µM [falling, single point]"
CCCCC[C@H](CC(=O)NO)C(=O)N[C@H](C(=O)N1CCC[C@H]1CO)C(C)C,max response,[1]; [10],46.7%
same,max response,[1]; [11],47.2%
same,AC50,[2]; [12],"67.5 µM [falling, partial curve, poor fit]"
same,AC50,[2]; [13],"84.9 µM [falling, single point]"
same,AC50,[4]; [15],"23.1 µM [rising, single point]"
COC(=O)[C@H]1[C@H]2C[C@@H]3c4[nH]c5cc(OC)ccc5c4CCN3C[C@H]2C[C@@H](OC(=O)c2cc(OC)c(OC)c(OC)c2)[C@@H]1OC,max response,[1]; [10],45.3%
same,max response,[1]; [11],48.9%
same,AC50,[2]; [12],"42.6 µM [falling, full curve, poor fit]"
same,AC50,[2]; [13],"47.8 µM [falling, partial curve]"
same,AC50,[4]; [14],"8.2 µM [falling, partial curve]"
same,AC50,[4]; [15],"0.164 µM [rising, full curve, poor fit]"
same,max response,[7],275% and 134%
same,max response,[8],60% and 32.3%
same,max response,[9],46.2% and 9.5%
CCCCS(=N)(=O)CC[C@H](N)C(=O)O (some centres not stated),max response,[1]; [10],35.2%
same,max response,[1]; [11],36.3%
same,AC50,[2]; [13],"84.9 µM [falling, single point]"
CC(N)(Cc1ccc(O)c(O)c1)C(=O)O (configuration not stated),max response,[1]; [10],38.4%
same,max response,[1]; [11],38.1%
same,AC50,[2]; [12],"84.9 µM [falling, single point]"
same,AC50,[2]; [13],"95.3 µM [falling, single point]"
C[C@]12CCC(=O)C=C1CC[C@@H]1[C@@H]2C(=O)C[C@@]2(C)[C@H]1CC[C@]2(O)C(=O)CO,max response,[1]; [10],58.3%
same,max response,[1]; [11],57.9%
same,AC50,[2]; [13],"30.1 µM [rising, single point]"
same,AC50,[4]; [15],"8.2 µM [rising, partial curve]"
